# Reference: the RNAGym collection of RNA variant scans (doi:10.1093/nar/gkz1192)
# Read counts are not given, so values of variants with three or more changes are uncertain.
# B1: CPEB3 Ribozyme (parent)
# chain: UAACAGGGGGCCACAGCAGAAGCGUUCACGUCGCAGCCCCUGUCAGAUUCUGGUGAAUCUGCGAAUUCUGCUGUAUAUCUC
# Variants of: B1
# Test: self-cleavage, relative activity (ratio to wild type); higher = more cleavage; in vitro, sequencing
# Method in brief: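 Relative activity was defined as the cleaved/total read fraction for a variant divided by the same fraction for the unmutated ribozyme. CPEB3 self-cleaving ribozyme libraries were made by rounds of error-prone PCR, barcoded, and transcribed in vitro with T7 RNA polymerase for 5 hours at 37°C, and cleavage ran through transcription plus a 15 min DNase I step before EDTA. Illumina sequencing of template-switched reverse transcripts gave the reads, and DNA sequencing mapped the barcodes. Averages come from three batches, using variants with at least 5 reads.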
row,Variant,self-cleavage
1,UAACAGGGGGCCACAGCAGAAGUGUUCACGACGCAGCCCCCGUCAGGCUCUGGUGAAACUGCGAAUUCUGCUGUAUAUCUC [C23U U31A U41C A47G U48C U58A],0.07
2,UAACAGGGGGCCACAGCAGAAGUGUUCACGGCGCAGCCCCUGUCAGAUUCUGGCGAAUCUGCGAAUUCUGCUGUAUAUCUC [C23U U31G U54C],0.12
3,UAACAGGGGGCCACAGCAGAAGUGUACACGUCGCAGCCCCUGUCAGAUCCUGGCGAAUCUGCGAAUUCUGCUGUAUAUCUC [C23U U26A U49C U54C],0.31
4,UAACAGGGGGCCACAGCAGAAGUGUCCUCGUCGCAGCCCCUGUCAGAUUCUGGUGAAUCUGCGAAUUCUCCUGUAUAUCUC [C23U U26C A28U G70C],0.14
5,UAACAGGGGGCCACAGCAGAAGUGUUCACGUCGCAGCCCCUGUCAGAUUCCGGCGAAUCUGCGAAUUCUGCUGUAUAUCUC [C23U U51C U54C],0.51
6,UAACAGGGGGCCACAGCAGAAGUGUCCACGCCGCGGCCCCCGUCGGAUUCUGGUGAAUCUGCGAAUUCUGCUGUAUAUCCC [C23U U26C U31C A35G U41C A45G U80C],0.03
7,UAACAGGGGGCCACAGCAGAAGUGUUCACGUCGCAGCCCCUGUCAGAUUCAGGUGAGUCUGCGAAAUCUGCUGUAUAUCUC [C23U U51A A57G U66A],0.04
8,UAACAGGGGGCCACAGCAGAAGUGUUCACGACGCAGCCCCCGUCAGCUUCGGGUGAAUCCGCGAAUUCCGCUGUAUAUCUC [C23U U31A U41C A47C U51G U60C U69C],0.05
9,UAACAGGGGGCCACAGCAGAAGUGUUCACGUCGCAGCCCCUGACAGAUUCUGAUGAAUCUGCGAAUUCUGCAGUAUAUCUC [C23U U43A G53A U72A],0.3
10,UAACAGGGGGCCACAGCAGAAGUGUACACGUCGCAGCCCCUGUCAGAUUCUGGUGAAUCUGCGAAGUCUGCUGUAUAUCUC [C23U U26A U66G],0.07
11,UAACAGGGGGCCACAGCAGAAGUGUUCACGUCGCAGCCCCUGUCAGAUUCUGGUGAAUCUGCGAAUUCUGCAGCAUAUCUC [C23U U72A U74C],0.2
12,UAACAGGGGGCCACAGCAGAAGUGUUCACGUCGCAGCCCCUGUCAGAUUCAGGUGAAUCUGCGAAUCCUGCUGUAUAUCUC [C23U U51A U67C],0.12
13,UAACAGGGGGCCACAGCAGAAGUGUCCACGUCGCAGCCCCUGUCUGAUUCUGGUGAAUCUGCGAAUUCUGCUGUAUAUUUC [C23U U26C A45U C79U],0.27
14,UAACAGGGGGCCACAGCAGAAGUGUUCACGUCGCAGCCCCUGUCAGAUCCAGGUGGAUCCGCGAAUUCUGCUGUAUAUCUC [C23U U49C U51A A56G U60C],0.08
15,UAACAGGGGGCCACAGCAGAAGUGUUCACGACGCAGCCCCUGUCAGAUCCUGGUGAAUCUGCGAAUUCUGCUGUAUAUCUC [C23U U31A U49C],0.12
16,UAACAGGGGGCCACAGCAGAAGUGUUCACGUCGCAGCCCCUGUCAGAUUCUGGUGAAUCUGCGAAUUCAGUUGUAUAUCUC [C23U U69A C71U],0.03
17,UAACAGGGGGCCACAGCAGAAGUGCUCACGUCGCAGCCCCUGUCAGAUUCUGGUGAAUCUGCGAAUGCUGCUGUAUAUCUC [C23U U25C U67G],0.08

row,Variant,self-cleavage
1,UAACAGGGGGCCACAGCAGAAGUGUUCACGUCGCAGCCCCAGUCGGAUUCUGGUGAAUCUGCGAAUUCUGCUCUAUAUCUC [C23U U41A A45G G73C],0.06
2,UAACAGGGGGCCACAGCAGAAGUGUUCACGCCGCCGCCCCUGUCAGAUUCUGGUGAAUCUGCGAAUUCUGCUGUAUAUCUC [C23U U31C A35C],0.14
3,UAACAGGGGGCCACAGCAGAAGUGUACACGUCGCAGCCCCCGUCUGAUACUGGUGAAUCUGCGAAUUCUGCUGUAUAUCUC [C23U U26A U41C A45U U49A],0.1
4,UAACAGGGGGCCACAGCAGAAGUGUGCACGUCGCAGCCCCUGUCAGACUCUGGUGAAUCUGCGAAUACCGCUGUAUAUCUC [C23U U26G U48C U67A U69C],0.05
5,UAACAGGGGGCCACAGCAGAAGUGUUCACGUCGCAGCCCCUGUCAGACUCCGGUGAAUCUGCGAAUUCUGGUGUAUAUCUG [C23U U48C U51C C71G C81G],0.13
6,UAACAGGGGGCCACAGCAGAAGUGUUCACGUCGCAGCCCCUGCCAGAUUCUGGUGAAUCUGUGAAUUCUGCUGUAUAUCUC [C23U U43C C62U],0.2
7,UAACAGGGGGCCACAGCAGAAGUGUUCACGUCGCAGCCCCUGUCAGAUUCUGGAGAAUCUGCGAAUCCUGCUGUAUUUCUC [C23U U54A U67C A77U],0.09
8,UAACAGGGGGCCACAGCAGAAGUGUCCACGUCGCGGCCCCUGUCAGAUUCUGGUAGAUCUGCGAAUUCUGCCGUAUAUCUC [C23U U26C A35G G55A A56G U72C],0.18
9,UAACAGGGGGCCACAGCAGAAGUGUCCACGUCGCAGCCCCUGCCAGAUUCUGGUGAAUCUGCGAAUUCUGCUGUAUAUCUC [C23U U26C U43C],0.1
10,UAACAGGGGGCCACAGCAGAAGUGUUCACGUCGCAGCCCCAGUUAGAUUCUGGUGAAUCUGCGGGUUCUGCUGUAUAUCUC [C23U U41A C44U A64G A65G],0.11
11,UAACAGGGGGCCACAGCAGAAGUGUUCACGUCGCAGCCCCUGUCAGAUUCUGGUGAACCUGCGAAUUCCGCUGUGUAUCUC [C23U U58C U69C A75G],0.09
12,UAACAGGGGGCCACAGCAGAAGUGUUCACGUCGCAGCCCCUGUCAGAUUCUGGUGAAUCUGCGAAUUCUGCUGCGUAUCUC [C23U U74C A75G],0.37
13,UAACAGGGGGCCACAGCAGAAGUGUGCACGUCGCAGCCCCUGUCAGAUUCCGGUGAAUCUGCGAAUUCCGCUGUAUAUCUC [C23U U26G U51C U69C],0.08
14,UAACAGGGGGCCACAGCAGAAGUGUUCACGUCGCAGCCCCUGCCAGAUUCUGGUGAAUCCGCGAAUUCUGCUGUAUAUCUC [C23U U43C U60C],0.12
15,UAACAGGGGGCCACAGCAGAAGUGUUCACGUCGCAGCCCCUGUCAGAUACUGGUGAAUCUGCGAACUCAGCUGUAUAUCUC [C23U U49A U66C U69A],0.07
16,UAACAGGGGGCCACAGCAGAAGUGUCCACGUCGCAGCCCCUGUCAGAUUCUGGUGGAUCUGCGAAUUCUGCUGUAUAUCUC [C23U U26C A56G],0.17
17,UAACAGGGGGCCACAGCAGAAGUGUCCACGUCGCAGCCCCCGUCAGAUUCUGGUGAAUCUGCGAAUUCUGCUGUAUAUCUC [C23U U26C U41C],0.16
